# Measured values from PubChem BioAssay AID2451 (National Center for Advancing Translational Sciences (NCATS), 2010).
# The campaign covered roughly 290,000 compounds. About 2,100 (0.72%) were called active. The shares of active, inactive and inconclusive entries below differ from those in the screen. The call rests on the fitted dose curve; in most records, active means well fitted inhibition curve with a large enough effect; inconclusive means small, poorly fitted or top-dose-only effect, or effect the other way; inactive means flat fitted curve, though single readings scatter. A potency beside an inconclusive call is a rough fit, not a confirmed value.
# Molecular target: Fructose-bisphosphate aldolase (Giardia intestinalis (strain ATCC 50803 / WB clone C6)) (UniProt A8B2U2)
# Test: qHTS Assay for Inhibitors of Fructose-1,6-bisphosphate Aldolase from Giardia Lamblia; further: nearly all actives have a fitted effect of over 55% in size
# Conditions: purified Giardia FBPA; activity, negative = inhibition: at 59.6 µM (top of the series) unless noted
# Method in brief: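 Giardia FBPA (40 nM reagent) was preincubated 10 min at RT with compound (up to 57.5 uM final), then substrate plus GAPDH/TPI/NAD/arsenate coupling system with diaphorase/resazurin was added; resorufin fluorescence (525/598 nm) was read after 20 min.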
# On the % scale 0 is the no-effect control and ±100 the full control effect; potency means the concentration at half of the fitted maximal effect; tags describe the fitted curve by direction and shape.
# UniProt A8B2U2, sequence (A8B2U2 whole entry, looked up): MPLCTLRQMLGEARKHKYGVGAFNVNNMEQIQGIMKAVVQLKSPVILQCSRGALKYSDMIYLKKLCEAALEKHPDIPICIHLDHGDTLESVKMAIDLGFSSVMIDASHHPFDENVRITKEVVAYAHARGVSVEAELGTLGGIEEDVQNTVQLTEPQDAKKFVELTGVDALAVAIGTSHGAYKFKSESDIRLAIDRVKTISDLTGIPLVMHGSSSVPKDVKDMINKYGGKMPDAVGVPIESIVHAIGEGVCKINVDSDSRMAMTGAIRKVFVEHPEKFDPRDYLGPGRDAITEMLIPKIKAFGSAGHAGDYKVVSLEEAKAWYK
SMILES,Potency,"activity, negative = inhibition"
Cc1cccc(/C=N/NC(=O)Cn2nnnc2N)n1,active: 17.7 µM,–
CC(C)(C)c1ccc(C(=O)CSc2ncn[nH]2)cc1,"inconclusive: 15.8 µM [inhibitor, partial curve]",–
COc1ccccc1/C=C1\S/C(=N/NC(=O)c2cccc(Br)c2)NC1=O,"inconclusive: 17.7 µM [activator, partial curve]",–
O=C(CCS(=O)(=O)c1ccc(Br)cc1)Nc1cc(F)ccc1F,inactive,–
COC(=O)C1=C(C)Nc2[nH]c(=S)[nH]c(=O)c2C1c1ccc(O)cc1 (configuration not stated),"inconclusive: 3.54 µM [inhibitor, full curve]",–
COc1cccc(NC(=O)CSc2nc3ccccc3nc2N2CCCC2)c1,inactive,–
Cc1ccc(-n2c(-c3cnccn3)n[nH]c2=S)cc1,"inconclusive: 15.8 µM [inhibitor, partial curve]",–
COc1cccc(CNC(=O)CCC2CCCN(c3cc(C)nc(N4CCCC4)n3)C2)c1 (configuration not stated),inactive,–
CCOC(=O)CN1C(=O)C(O)(c2c(C)[nH]c3ccccc23)c2ccccc21 (configuration not stated),"inconclusive: 15.8 µM [inhibitor, single point]",–
CC(C)C[C@H](NC(=O)c1[nH]cnc1C(=O)N[C@H](C)c1ccccc1)C(=O)OCc1ccccc1,"inconclusive: 17.7 µM [inhibitor, single point]",–
N#C/C(=C(/O)CCl)c1nc(-c2ccccc2)cs1,"inconclusive: 17.7 µM [inhibitor, partial curve]",–
Cc1ccc(NC2(C#N)C(=O)Nc3ccccc32)cc1C (configuration not stated),"inconclusive: 15.8 µM [inhibitor, single point]",–
CCn1c(-c2cccnc2Cl)nc2cc(Cl)c(Cl)cc21,inactive,–
NC(=O)C1CCN(Cc2cccc(OCc3ccccc3)c2)CC1,"inconclusive: 17.8 µM [inhibitor, partial curve]",–
COC(=O)c1cc(N=Cc2c(O)c3ccccc3oc2=O)cc(C(=O)OC)c1,"inconclusive: 12.6 µM [inhibitor, partial curve]",–
CCn1c(SCC(=O)N2CCCC2)nc2ccccc21,inactive,–
O=C(COC(=O)c1cccnc1Cl)Nc1nc(-c2ccccc2)cs1,"inconclusive: 9.98 µM [inhibitor, partial curve]",–
CNC(=O)CC1C(=O)N(c2ccc(Cl)cc2)C(=S)N1NC(=O)c1cccc(F)c1 (configuration not stated),"inconclusive: 15.8 µM [inhibitor, partial curve]",–
CCOc1ccc(-c2nc(N)ncc2-c2ccc(Cl)cc2)c(O)c1,inactive,–
O=C(/C=C/c1ccco1)NC(=S)Nc1ccc(C(=O)O)cc1,"inconclusive: 14.1 µM [inhibitor, partial curve]",–
CCCn1nnc(NC(=S)NC(=O)CC)n1,active: 5.61 µM,–
Cc1nnc(SCc2ccccc2)nc1/C=C/NOCc1ccc(Cl)cc1Cl,"inconclusive: 15.8 µM [inhibitor, partial curve]",–
CC(=O)c1ccc(NC(=S)Nc2cccc3cnccc23)cc1,active: 1.99 µM,–
CCCOCc1ccc(O)c2ncccc12,"inconclusive: 3.54 µM [inhibitor, partial curve]",–

SMILES,Potency,"activity, negative = inhibition"
N#C/C(=C(/O)CSc1ncn[nH]1)c1nc2ccccc2[nH]1,"inconclusive: 17.7 µM [inhibitor, partial curve]",–
COc1ccc(CN2CCCC(C(=O)N3CCCCC3)C2)cc1OC (configuration not stated),"inconclusive: 12.6 µM [inhibitor, partial curve]",–
CCCCn1c2nc3ccccc3nc2c2c(=O)n(C(C)CC)cnc21 (configuration not stated),inactive,–
CC(C)n1nc(C(=O)Nc2nc3ccccc3[nH]2)c2ccccc2c1=O,"inconclusive: 17.7 µM [inhibitor, single point]",–
CC(=O)c1c(C)[nH]c(C(=O)Nc2ccc3c(c2)OCCO3)c1C,"inconclusive: 19.9 µM [inhibitor, partial curve]",–
CCc1ccc(N(C(=O)Cn2nnc(-c3ccccc3)n2)C(C(=O)NC2CCCCC2)c2ccccn2)cc1 (configuration not stated),inactive,–
Cc1ccnc(NCc2cccc3ccccc23)c1,"inconclusive: 22.4 µM [inhibitor, single point]",–
CN1C(=O)[C@]23CC4=CC=C[C@H](O)[C@H]4N2C(=O)[C@@]1(CO)SS3,"inconclusive: 22.3 µM [inhibitor, partial curve]",–
COc1ccc(CC(=O)Nc2c(C(=O)N3CCN(c4ccccc4)CC3)oc3ccccc23)cc1OC,–,inconclusive: 24% [activator]
COc1cc(CNCc2ccc(C(=O)O)cc2)ccc1OCc1ccc(F)cc1,–,inconclusive: 36.8% [activator]
COc1cc(/C=C2\C(=O)N(CCC#N)N=C2C)ccc1OCC(=O)Nc1ccccc1,inactive,–
COc1ccccc1OCc1ccc(C(=O)Nc2ccncc2)o1,inactive,–
Cc1cc(NC(=O)/C=C/c2ccc(Br)cc2)no1,inactive,–
Oc1[nH]c2ccc(Br)cc2c1N=NC(=S)N1CCOCC1,"inconclusive: 31.5 µM [inhibitor, single point]",–
CCOC(=O)c1c(N)ssc1=S,"inconclusive: 22.4 µM [inhibitor, single point]",–
CN(C)C(=O)CSc1nnc(-c2cc(-c3cccs3)nc3ccccc23)o1,inactive,–
COC(=O)NC(Nc1sc2c(c1C(N)=O)CCCC2)(C(=O)OC)C(F)(F)F (configuration not stated),"inconclusive: 6.29 µM [inhibitor, full curve]",–
CCn1c2ccccc2c2cc(NC(=O)c3ccccc3-c3ccccc3C(=O)O)ccc21,"inconclusive: 19.9 µM [activator, partial curve]",–
CCN(CC)C(=S)NC(=O)c1cccnc1,"inconclusive: 19.9 µM [inhibitor, partial curve]",–
O=C(c1ccc2c3c(cccc13)CC2)C1CCCN(C(=O)c2cccnc2)C1 (configuration not stated),inactive,–
Nc1c(C(=O)NCc2ccco2)sc2nc3c(cc12)C(=O)CCC3,"inconclusive: 8.89 µM [inhibitor, partial curve]",–
COC(=O)c1sc2[nH]c(=S)n(N)c(=O)c2c1C,"inconclusive: 6.29 µM [inhibitor, single point]",–
O=C(N/N=C\c1cccs1)c1sccc1-n1cccc1,"inconclusive: 19.9 µM [inhibitor, partial curve]",–
COc1ccc2ccccc2c1CNCCN1CCOCC1,"inconclusive: 20 µM [inhibitor, partial curve]",–

SMILES,Potency,"activity, negative = inhibition"
COc1c(O)cc2oc(-c3ccc(O)c(O)c3)cc(=O)c2c1O,"inconclusive: 17.7 µM [inhibitor, partial curve]",–
COc1cc2c(cc1OC)-c1c(O)c(OC)cc3c1[C@H](C2)N(C)CC3,"inconclusive: 3.16 µM [inhibitor, partial curve]",–
Cc1ccc(S(=O)(=O)Oc2cccc(/C=N/Nc3ccc(C(=O)O)cc3)c2)cc1,active: 17.7 µM,–
COc1ccc(NC(=S)NCCN2CCC(C)CC2)cc1Cl,active: 14.1 µM,–
COc1ccc(Nc2ccc3c(c2)=NC2(CCCCC2)[N+]=3[O-])cc1,"inconclusive: 2.81 µM [inhibitor, full curve]",–
O=C1c2ccccc2-c2c1nc1c([n+]2[O-])CCCC1,"inconclusive: 6.29 µM [inhibitor, partial curve]",–
O=C(OCCN1CCN(c2ncc(C(F)(F)F)cc2Cl)CC1)c1ccc(Cl)cc1,inactive,–
Nc1ncnc2nc(SCC(=O)Nc3ccccc3F)[nH]c12,"inconclusive: 2.82 µM [inhibitor, partial curve]",–
COc1ccc(/C(O)=C2/C(=O)C(=O)N(Cc3cccnc3)C2c2ccncc2)cc1F (configuration not stated),"inconclusive: 19.9 µM [activator, single point]",–
CCOc1cc(S(=O)(=O)Nc2ncn[nH]2)ccc1Br,"inconclusive: 11.2 µM [inhibitor, partial curve]",–
CCCSc1nc(N)c2c3c(sc2n1)CN(C)CC3,inactive,–
Cc1ccc(NC(=O)Cc2nnc(SCC(=O)Nc3ccc(N4CCOCC4)cc3)n2C)cc1,inactive,–
O=C(CSc1cccc2cccnc12)N/N=C/c1ccncc1,"inconclusive: 15.8 µM [inhibitor, partial curve]",–
O=C(Nc1ccc2c(c1)OCO2)N1CCN(c2ccccc2Cl)CC1,inactive,–
O=c1cc(-c2ccccc2)[nH]n1-c1nc2ccccc2[nH]1,"inconclusive: 39.8 µM [inhibitor, single point]",–
O=C1CC(N2CC=C(c3ccccc3)CC2)C(=O)N1c1ccc(F)cc1 (configuration not stated),"inconclusive: 17.7 µM [inhibitor, single point]",–
COc1ccccc1/C=C1\SC(=S)N(NS(=O)(=O)c2ccc(C)cc2)C1=O,"inconclusive: 28.2 µM [inhibitor, partial curve]",–
c1ccc2c(c1)CCN(C1=Nc3cccc4cccc1c34)C2,"inconclusive: 3.97 µM [inhibitor, full curve]",–
Cc1nnc(N/N=C/c2cc([N+](=O)[O-])c(N3CCC(C)CC3)cc2N2CCC(C)CC2)n1N,active: 9.98 µM,–
O=C(COC(=O)c1ccc2c(=O)n3c(nc2c1)CCC3)Nc1ccc(OC(F)F)cc1,inactive,–
CN(Cc1ccccc1)S(=O)(=O)c1ccc2[nH]c(=O)oc2c1,"inconclusive: 15.8 µM [inhibitor, partial curve]",–
Cc1ccc(-n2c(NN)nc3ccccc3c2=O)c(C)c1,"inconclusive: 28.1 µM [inhibitor, single point]",–
O=C(Cc1c(F)cccc1Cl)NNC(=S)Nc1ccc(S(=O)(=O)Nc2ncccn2)cc1,active: 14.1 µM,–
CCn1c(C)nc2cc(C(=O)NNC(=S)Nc3ccc(Cl)cc3Cl)ccc21,"inconclusive: 15.8 µM [activator, partial curve]",–
